From patent US5458889A (priority 1986, dated 1995)

How the values were obtained:
[1] = system: cytomegalo virus
Text: (§1) Virucidal activity according to the AFNOR Standard:

[2] = system: type 2 herpes simplex virus
Text: as §1

[3] = system: cells; test: Cell toxicity (Test 16); assay type: cell-based; details: type 2 herpes simplex virus section
Text: The following results were obtained:

[4] = system: Streptococcus Faecalis; assay type: cell-based

Q: With Benzalkonium fluoride as the substance, how does the Inhibitory concentration [1] read?
A: Its Inhibitory concentration is 0.0075 % by weight.

Q: What about the Inhibitory concentration [2] of the same substance?
A: Its Inhibitory concentration is 0.0075 % by weight.

Q: And the “Cell Toxicity” value [3]?
A: Its value is 0.08%.

Q: What does the source list for Benzalkonium chloride?
A: effect of the serous proteins upon the efficiency of benzalkonium chloride [4]: unfavourable effect of the serous proteins; Inhibitory concentration [1]: 0.01 % by weight; Inhibitory concentration [2]: 0.01 % by weight; Cell Toxicity [3]: 0.05%
